Results are given in words; binding and its absence hold for the method and conditions named. In cells and extracts the contact can be indirect. Some results given as binding are weak or reduced against the parent protein; the word gives no strength.

Protein sequences, listed by entry. Tags and fused reporters are not part of them.
UniProt Q9CQJ4: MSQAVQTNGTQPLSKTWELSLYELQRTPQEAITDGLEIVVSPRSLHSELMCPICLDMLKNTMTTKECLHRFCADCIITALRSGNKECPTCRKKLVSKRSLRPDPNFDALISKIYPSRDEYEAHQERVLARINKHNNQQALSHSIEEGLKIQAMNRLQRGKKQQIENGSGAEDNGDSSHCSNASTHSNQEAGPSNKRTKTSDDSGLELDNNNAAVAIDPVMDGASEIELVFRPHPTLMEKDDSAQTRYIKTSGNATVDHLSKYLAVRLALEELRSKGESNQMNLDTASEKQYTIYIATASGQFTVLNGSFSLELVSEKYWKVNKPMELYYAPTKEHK
UniProt Q61188: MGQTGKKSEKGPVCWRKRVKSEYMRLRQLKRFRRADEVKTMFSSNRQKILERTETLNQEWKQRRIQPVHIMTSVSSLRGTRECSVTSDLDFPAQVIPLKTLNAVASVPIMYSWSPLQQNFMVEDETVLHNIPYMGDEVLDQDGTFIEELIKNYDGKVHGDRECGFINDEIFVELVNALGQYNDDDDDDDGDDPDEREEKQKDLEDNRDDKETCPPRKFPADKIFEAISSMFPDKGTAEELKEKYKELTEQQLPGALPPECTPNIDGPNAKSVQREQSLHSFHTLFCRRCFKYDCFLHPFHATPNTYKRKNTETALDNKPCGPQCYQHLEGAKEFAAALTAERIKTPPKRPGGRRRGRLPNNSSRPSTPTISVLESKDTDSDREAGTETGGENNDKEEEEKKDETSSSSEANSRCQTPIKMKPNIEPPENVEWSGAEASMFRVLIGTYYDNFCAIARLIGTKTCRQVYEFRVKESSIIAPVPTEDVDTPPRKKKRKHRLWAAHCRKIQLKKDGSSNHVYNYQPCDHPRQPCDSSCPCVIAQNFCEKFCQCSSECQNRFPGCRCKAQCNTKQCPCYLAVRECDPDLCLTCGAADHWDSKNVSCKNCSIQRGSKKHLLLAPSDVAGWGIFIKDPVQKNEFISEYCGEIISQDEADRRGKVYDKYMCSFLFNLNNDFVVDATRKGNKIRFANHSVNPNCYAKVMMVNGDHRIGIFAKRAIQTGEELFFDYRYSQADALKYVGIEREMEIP

In test [1] the target is T1, Vav3 (mouse (endogenous in Ba/F3 cells and murine B-cell progenitors)) (UniProt Q9R0C8).
T1 sequence: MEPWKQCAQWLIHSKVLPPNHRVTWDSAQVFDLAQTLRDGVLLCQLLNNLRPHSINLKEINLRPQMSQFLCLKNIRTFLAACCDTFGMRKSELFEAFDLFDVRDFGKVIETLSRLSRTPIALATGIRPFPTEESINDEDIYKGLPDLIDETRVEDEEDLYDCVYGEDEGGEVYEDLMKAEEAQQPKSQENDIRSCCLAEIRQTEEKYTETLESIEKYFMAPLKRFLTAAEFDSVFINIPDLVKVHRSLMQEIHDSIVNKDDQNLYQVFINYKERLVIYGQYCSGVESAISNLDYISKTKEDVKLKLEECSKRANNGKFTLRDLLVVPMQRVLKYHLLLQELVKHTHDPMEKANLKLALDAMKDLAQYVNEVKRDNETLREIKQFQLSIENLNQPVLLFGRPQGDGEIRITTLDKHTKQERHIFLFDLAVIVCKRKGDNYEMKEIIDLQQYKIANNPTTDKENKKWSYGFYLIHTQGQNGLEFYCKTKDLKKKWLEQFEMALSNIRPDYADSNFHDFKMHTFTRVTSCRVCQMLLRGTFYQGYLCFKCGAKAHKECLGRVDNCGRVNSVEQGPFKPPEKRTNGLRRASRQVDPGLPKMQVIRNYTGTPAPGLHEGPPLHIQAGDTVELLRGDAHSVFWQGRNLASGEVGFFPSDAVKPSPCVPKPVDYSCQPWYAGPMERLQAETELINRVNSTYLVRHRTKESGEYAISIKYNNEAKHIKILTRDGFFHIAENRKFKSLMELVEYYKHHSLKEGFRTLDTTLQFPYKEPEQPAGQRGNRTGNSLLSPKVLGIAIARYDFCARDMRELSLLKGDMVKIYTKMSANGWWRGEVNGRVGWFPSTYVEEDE
Kind of test: co-IP; cytoplasmic and nuclear fractions of empty vector or p190-BCR-ABL transduced Ba/F3 cells; anti-Vav3 or anti-Bmi1 antibody overnight at 4 °C, protein A/G Dynabeads 2 h, washed 3 times with 1X RIPA buffer; western blot. Background: A western blot detects proteins with antibodies after separation by electrophoresis.

Test [2] concerns the target T2, Bmi1 (mouse (endogenous in Ba/F3 cells and murine B-cell progenitors)) (UniProt P25916).
T2 sequence: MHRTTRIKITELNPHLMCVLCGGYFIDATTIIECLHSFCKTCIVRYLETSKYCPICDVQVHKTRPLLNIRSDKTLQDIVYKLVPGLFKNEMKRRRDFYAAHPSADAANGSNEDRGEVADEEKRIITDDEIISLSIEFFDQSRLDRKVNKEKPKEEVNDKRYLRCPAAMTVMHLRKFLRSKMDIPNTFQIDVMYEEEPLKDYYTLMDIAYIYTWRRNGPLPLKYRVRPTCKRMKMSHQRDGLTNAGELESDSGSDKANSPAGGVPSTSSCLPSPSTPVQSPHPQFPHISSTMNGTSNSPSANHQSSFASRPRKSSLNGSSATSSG
Briefly: proximity ligation; Duolink PLA in fixed, permeabilised primary murine B-cell progenitors on fibronectin-coated slides (empty vector or p190-BCR-ABL transduced; WT, Rac2-/-, or Vav3-/- transduced with empty vector, Vav3 FL or Vav3 N369A); confocal microscopy.

With Ring1B (from UniProt Q9CQJ4 1-336), the binding entry in test [1] is listed as “binds”.
As to Ezh2 (from UniProt Q61188 1-746), the binding entry in test [1] is reported as “binds”.

B1: pleckstrin homology domain leucine-rich repeat protein phosphatase 2 (Phlpp2) (protein, UniProt Q8BXA7 1-1320)
chain: MKHNGSRTCLNRRSRFGSRERDWLREDVKRGCVYLYGADTTTATTTTSSSSSSSSSSDLHLVLCTVETPASEICAGEGRESLYLQLHGDLVRRLEPSERPLQIVYDYLSRLGFEDPVRIQEEATNPDLSCMIRFYGEKPCQMDHLDRILLSGIYNVRKGKTQLHKWAERLVVLCGTCLIVSSVKDCQTGKMHILPLVGGKIEEVKRRQHSLAFSSAGAQAQTYHVSFETLAEYQRWQRQASKVVSQRMSTVDLSCYSLEEVPEHLFYSQDITYLNLRHNFMQLERPGGLDTLHKFSQLKGLNLSHNKLGLFPVLLCEISTLTELSLSCNGFHDLPSQIGKLLNLQTLSLDGNGLTALPDELGNLRQLTSLGISFNDFRHIPEVLEKLTMLDKVAMAGNRLEVLNLGALTRMSQVKHVDLRMNHLKTVITENMEGNKHITHMDLRDNQLTDLDLSSLCSLEQLHCERNQLRELTLSGFSLRTLYASWNRLTAVNVYPVPSLLTSLELSQNLLECVPDWACEAKKLEILDISHNLLTEVPMRILSSLSLRKLMVGHNHIHVLPALVEHIPLEVLDIQHNTLSRLPDTLFSKALNLRYLNASANSLESLPSACAGEESLSVLQLLYLTSNLLTDQCIPVLVGHPHLRVLHLANNQLQTFPASKLNKLEQLEELNLSGNKLTAIPTTIANCKRLHTLVAHANNISIFPEILQLPQIQFVDLSCNDLTEILIPEALPATLQDLDLTGNTNLVLEHKTLDMFSHITALKIDQKPLPATDSAVTSTFWSHGLAEMAGQRNKLCVSALAMDNFAEGVGAVYGMFDGDRNEELPRLLQCTMADVLLEEVQHSTNDTVFMTNTFLVSHRKLGMAGQKLGSSALLCYIRPDTADPTSSFSLTVANVGMCQAVLCRGGKPVPLSKVFSLEHDPEEAQRVKDQKAIITEDNKVNGVTCCTRLLGCTYLYPWILPKPHIASTPLTIQDELLILGNKALWEHLSYLEAVNAVRHVQDPLAAAKKLCTLAQSYGCQDNVGAMVVYLNIGEEGCTCEMNGLTLPGPVGFASTAALKDTPKPTTPSSSSGIASEFSSEMSTSEVSSEVGSTASDEHNTVGLEASLLPRPERRCSLHPASSAGVFQRQPSCATFSSNQSDNGLDSDDDQPVEGVITNGSRVEVEVDIHCCRGREPESSPPLPKNSSNACSEERARGAGFGIRRQNSVNSGILLPANRDKMELQKSPSTSCLYGKKLSNGSIVPLEDSLNLIEVATEAPKRKTGYFAAPTQLEPEDQFVVPRDLEEEVKEQMKQHQEGRPEPEPRGEERTEPLEEFDTAL
B1: the binding result in test [2] is recorded as “no binding”.

B2: WT Vav3 (full-length; FL) (protein, UniProt Q9R0C8 1-847)
chain: T1 sequence
On to B2, for which the binding result in test [2] was “binds”.

B3: Bmi1 (protein, UniProt P25916 1-324)
chain: T2 sequence
Regarding B3, in test [1], the binding result was “binds”.

Values taken from paper PMC9160250, “Nuclear Vav3 is required for polycomb repression complex-1 activity in B-cell lymphoblastic leukemogenesis” (Nature Communications, 2022).
